We go through 22 molecules from article PMC12136788.

The list shows a part of the results.

T1: UNK ZnF1-3 (human, UniProt Q9C0B0 31-174)
T1 sequence: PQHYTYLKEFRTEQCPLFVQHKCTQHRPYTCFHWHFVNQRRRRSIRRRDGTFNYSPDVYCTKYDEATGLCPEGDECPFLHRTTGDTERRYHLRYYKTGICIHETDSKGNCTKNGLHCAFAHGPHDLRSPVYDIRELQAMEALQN

B1: chr19:47150976:47150977:-_ENSG00000197380_ENST00000391916|hu_hu|FALSE|FALSE (ssRNA)
RNA: GGGAGUUCUACAGUCCGACGAUCACUGGGGAGUCACCAUCGUCAUAAUAAAUACAGUAAUUUUAAAAAAGAAAAAAAAUACUAGAUUGGAACAGCUGAGGGUCAUCAGGCUUCCCCCAUUCCCUCUCACAGGGAGUGGGGGUCCAACAGAGGAUUGAGCAUCA
B2: 125842170_125848949_403_3pUTR_ENSMUSG00000033917_ENSMUST00000038791|mouse|control|control (ssRNA)
RNA: GGGAGUUCUACAGUCCGACGAUCUGCAUCAAGACAGGAACUCCAUCAGAAGUAAACUCGAUGUCCAGCUCCACACCUGUUGCUCCAUUCUUAGCUGCCUGCCGGAUGGCCGCCAGCGUGUUCUCGGGCGCGUCGUGGCUGCCGCAACAGAGGAUUGAGCAUCA
B3: chr1:6260860:6260861:+_ENSMUSG00000025907_ENSMUST00000027040|perfect_dup|FALSE|FALSE (ssRNA)
RNA: GGGAGUUCUACAGUCCGACGAUCUGGUUUGAGAUCCAGGGCAGGAAGAGACUCUGAGUGCAGAAAAUAUAAAGUAGGACUAACAGUAAACAAUACAUAAUUGUCGUGCCGCUCAUCUAGGAUGAUGAGAACCAAAUCUCCCACCAACAGAGGAUUGAGCAUCA
B4: chr7:29966231:29966232:-_ENSG00000136193_ENST00000242059|hu_mus|FALSE|FALSE (ssRNA)
RNA: GGGAGUUCUACAGUCCGACGAUCACCAAAACAGGGUGACUGUGCUUUGGGGACAAGUUUUACAUCAUCAACAAAGAUGAAAGGCUUGAAUAUGGACCUGGAAGGAUCUGGGGUCCCGGUGAAGUAGUGGAUACACGGUGAACUCAACAGAGGAUUGAGCAUCA
B5: chr2:217001844:217001845:+_ENSG00000079246_ENST00000392132|hu_hu|hu_hu_hu_mus_False|18_78 (ssRNA)
RNA: GGGAGUUCUACAGUCCGACGAUCACCAACUUGAGGAUUAGAUCUUUUGUCAUAAGCAUAUCGAACUAUGGCGACCAUGUUUAACUCAUCCAAAGCAUGAACGAGAGAGGAAAGGGCAACUGCAGCUGCCUCAUCAUCCUUUGCCAACAGAGGAUUGAGCAUCA
B6: chr5:37680062:37680063:+_ENSMUSG00000029121_ENSMUST00000031004|mus_hu|mus_mus_mus_hu_False|1_98 (ssRNA)
RNA: GGGAGUUCUACAGUCCGACGAUCUUUGGGUGUAGCUGGCACCUCGUACACAGGACCGUCAUACAUGCCCCUGGAAACCCCUUGCAAUCCAAAAACCUUAUUCCUGAUUUUGACGCGCUGGUACAGGUGCUCCGGGAAUGGCUUCAACAGAGGAUUGAGCAUCA
B7: chr11:87793471:87793472:-_ENSMUSG00000020483_ENSMUST00000020775|mus_mus|mus_mus_mus_hu_False|8_58 (ssRNA)
RNA: GGGAGUUCUACAGUCCGACGAUCUGGACUUGAAAAUAAAAGAAUAAGCUGGAUCCCCCACCCCCCCACAUUGUCAACCCUAUGCGAGAGUUUUGAAGGCGACUCAUGAAAAUCAGCAGCUCAAACGAAUGACAACCCCCCACCCAACAGAGGAUUGAGCAUCA
B8: chr1:184663225:184663226:-_ENSG00000116406_ENST00000318130|hu_hu|FALSE|FALSE (ssRNA)
RNA: GGGAGUUCUACAGUCCGACGAUCACCAACAGAUUGUUUAGCAAGUCAUAGCUCAUCCUUCUCCAUCAUUUCAAAUGCUUCUAUAUCUUCAUUCCAGUCUGCUAAUAUGGAGUCUAUAGGCUGGACCUUUUUACCCCAGCUAACCAACAGAGGAUUGAGCAUCA
B9: chr6:42975684:42975685:+_ENSG00000112640_ENST00000485511|hu_hu|motif|central (ssRNA)
RNA: GGGAGUUCUACAGUCCGACGAUCACUGUCAAAUAGGUCUAGGAGAGCAAGUACAAACUUCUGGUCGAUGUACUUCUUGGCGGUGUUUGGCUGGAAAUCAGGAGACUCAAGGAAACGUAAGAAGAACUCAUACACGAGCUGGAGCAACAGAGGAUUGAGCAUCA
B10: chr13:29045409:29045410:-_ENSMUSG00000076431_ENSMUST00000067230|mus_mus|FALSE|FALSE (ssRNA)
RNA: GGGAGUUCUACAGUCCGACGAUCAUUUUGUUGCAAGGUAGGAAGCCAAGAAGCUUGCAUGCAACAGACCGGCAUGAAUAAAUGUAUGUUUCUCCCUCCCUCCUGCAAGAAGGGGAGCUGGUUACCGGCAGAGUUCCCCCACUGCAACAGAGGAUUGAGCAUCA
B11: chr14:76904430:76904431:+_ENSMUSG00000022010_ENSMUST00000022587|mus_mus|mus_mus_mus_hu_True|18_108 (ssRNA)
RNA: GGGAGUUCUACAGUCCGACGAUCUGCUGGAAAAAAAACCCUCGUGGAAAAAAAGAGGGAACACCAGCAGCCUUGUAUAAGCUAGAUAAAAUCUUCUGGCUUUCCGCAGCCCAGGGAGUGAGAACGGACGGCAGCCCUAAUUUACAACAGAGGAUUGAGCAUCA
B12: 7417412_7421492_895_3pUTR_ENSMUSG00000040021_ENSMUST00000165952|mouse|control|control (ssRNA)
RNA: GGGAGUUCUACAGUCCGACGAUCAGAGAUGGGCCGUGUCUCUGAGGAACUAGAGACUCUUUAGAACCUUUCCAGCUUUGUUUUCGGUUAAUUGAAUGUUGCACAUUUCCUGGUUUCAUGGUGGCAUUAAUAGGCCUGGCAGCUCAACAGAGGAUUGAGCAUCA
B13: 69556381_69556845_2733_CDS_ENSMUSG00000005198_ENSMUST00000058470|mouse|control|control (ssRNA)
RNA: GGGAGUUCUACAGUCCGACGAUCUACAUUCUGCUGCCCGACAACAGCAAUGACCUGGGAGAUGUUGAUCUUGGAACCCUUGGCUCCAGACACCACCAUAGACUUGAAGUUGUUAUAUUCAGAGAGGGAUUUCUGUGCAGAGGACAACAGAGGAUUGAGCAUCA
B14: chr1:163117127:163117128:-_ENSG00000143248_ENST00000313961|hu_mus|hu_hu_hu_mus_False|1_1 (ssRNA)
RNA: GGGAGUUCUACAGUCCGACGAUCUGCUACAAAGGAUGUAACUCAACUCACAGGGCAACUUUUGGAAGCCUGACCAGAUGACUACUUGAUUAGCUCCUUAUAAAAUUCAGAGCGCACAAAGCGGGGCAGAGAAUCCUUUUCCAUCAACAGAGGAUUGAGCAUCA
B15: 153779924_153780044_4694_3pUTR_ENSG00000143614_ENST00000368655|human|control|control (ssRNA)
RNA: GGGAGUUCUACAGUCCGACGAUCCAUCACUAAUCCCUGGGAAGAGUAUGAAAAUGGGGAGAAGAAAGGGUAAGAAAUCAAACCUCAGCGGUUGAACAAAGGGUCACCGAGCUAUACUAGUCAAGAAGCAGCUUCUAUGUAACUCAACAGAGGAUUGAGCAUCA
B16: chr1:66463027:66463028:+_ENSMUSG00000015222_ENSMUST00000114013|mus_mus|mus_mus_mus_hu_True|28_28 (ssRNA)
RNA: GGGAGUUCUACAGUCCGACGAUCUUUUCUUUCAGGAGUGGAAAUUCUGCCUCUCCCGGUUUUAAAAGGCUUUUCUUUUCUAUGUUUCUCAAGAGAUGAUCUCCGAGCAUCCUUCUCAGCUUUCUCCUCUUUAGGAAUAGUUUCCAACAGAGGAUUGAGCAUCA
B17: chr1:115275314:115275315:-_ENSG00000009307_ENST00000339438|hu_mus|FALSE|FALSE (ssRNA)
RNA: GGGAGUUCUACAGUCCGACGAUCAACCUCUAUGUUGGUUGCUCGUUCCAAUUUGUCACGUCGGUCUGUUGAAAUAUUAAACCUAACAUGGUCACCUUCCAGCAGGGUCACUUUGGAUUUUGUGUCUUUGUCUCCAAAGGGAAGCAACAGAGGAUUGAGCAUCA
B18: chr7:74379609:74379610:-_ENSMUSG00000030557_ENSMUST00000156690|mus_hu|FALSE|FALSE (ssRNA)
RNA: GGGAGUUCUACAGUCCGACGAUCGCAGGUAAGUGCCUGAUUCUGUGUAUGUAACACACACCCACACAUACACACUCACACCCACAUACAUAUAUAUGUAAAGGGAUAUAUAUAUGUAUGUACAUAUAAAUAUAUUUAACUCAUCAACAGAGGAUUGAGCAUCA
B19: chr12:39756943:39756944:-_ENSG00000139116_ENST00000544797|hu_mus|hu_hu_hu_mus_False|98_98 (ssRNA)
RNA: GGGAGUUCUACAGUCCGACGAUCGGUUUGGCUGUUACCCCCGAGGGAAUCCUGCAAGAGUCUUGUCAGCUUAGAGUCUCUGUAAGGGACAUGGGUGGCUCUCUUGCUCUUGUCCCCCAAGGCGCUGAUUACAUUCCCAAGAGCCAACAGAGGAUUGAGCAUCA
B20: chr10:112654219:112654220:+_ENSG00000150593_ENST00000280154|hu_mus|motif|central (ssRNA)
RNA: GGGAGUUCUACAGUCCGACGAUCCCACAAGGAUUUUAAUAAAUCUAAGAUCAUCUUGAAUGCACUUUCUCCAGUUGACUCGGAAACCAUUACAAUGGCUUCAUAUACAAGCUCGUGGUGAAAAUGAGGUACUUCCAGUUCCUUCAACAGAGGAUUGAGCAUCA
B21: chr5:132409753:132409754:+_ENSG00000170606_ENST00000304858|hu_hu|motif|central (ssRNA)
RNA: GGGAGUUCUACAGUCCGACGAUCUCUAUUAAAUGCACAUACAGAAACUUGAUAAGCAGAGUGGCCCAUGUCUACAAAAACGGCAUUUCUUGGUUUCUCUUCUAAGGCAGGAAGAUCCUGCUUAUAGAUUCCAUAUGCAAGAGCCAACAGAGGAUUGAGCAUCA
B22: 23874580_23874700_1019_3pUTR_ENSMUSG00000023909_ENSMUST00000024702|mouse|control|control (ssRNA)
RNA: GGGAGUUCUACAGUCCGACGAUCAACCCCAGCAUGGAGCUGGAGGAUGGAGCCCACACUCAGCAAGUGCAUGAUCUGGUGGGAGUUGCCCCAGUAGUCGAAGCGACCAGGCCCCCACCGCUCUGGCAGGCGUGCCACAUUCACCAACAGAGGAUUGAGCAUCA

The test deals with T1, UNK ZnF1-3. Nature of the test: nsRBNS (natural sequence RNA bind-n-seq); RBNS binding buffer (assumed for nsRBNS): 25 mM Tris pH 7.5, 150 mM KCl, 3 mM MgCl2, 0.01% Triton X-100, 500 ug/ml BSA, 20 U/ml SUPERase-In, 4 C; UNK is unkempt and MSI1 is Musashi-1; names of the RNAs are library labels; protein concentration not given here; high values mean tight binding.
Molecule B1 showed a binding signal of 2.44 enrichment R.
Regarding B2, the binding signal was determined as 0.77 enrichment R.
Under B3 stands 2.18 enrichment R.
For B4 the value was 1.75 enrichment R.
Molecule B5 came in with a binding signal of 1.56 enrichment R.
For B6 the value was 0.859 enrichment R.
Under B7 stands 2.52 enrichment R.
Regarding B8, the binding signal was 1.21 enrichment R.
Molecule B9 yielded a binding signal of 1.65 enrichment R.
For B10 the value was 1.13 enrichment R; for B11, 1.56 enrichment R; for B12, 0.836 enrichment R.
For B13 the value was 0.974 enrichment R; for B14, 1.16 enrichment R.
For B15 the value was 2.43 enrichment R.
Molecule B16 registered a binding signal of 0.43 enrichment R.
In turn, B17 returned a binding signal of 0.601 enrichment R.
For B18 the value was 0.913 enrichment R; for B19, 0.74 enrichment R.
For B20 the value was 0.956 enrichment R.
Turning to B21, the binding signal amounted to 0.898 enrichment R.
In the case of B22, the binding signal came to 0.742 enrichment R.
